Here are results for 42 compounds from PMC4336329 (PLoS ONE, 2015).

The structures appear in SMILES notation. In all, about 310,000 compounds went through this assay and about 14,000 (4.5%) showed an effect of 50% or more. The effect is printed as a negative number. This is one part of the list.
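Note: peak tail current of the secondary pulse compared with the same well before compound.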

The target in the test is human ether-à-go-go-related gene (hERG) potassium channel (human, UniProt Q12809). As to the kind of experiment: primary screen, population patch clamp on CHO cells stably expressing hERG.
human ether-à-go-go-related gene (hERG) potassium channel, sequence (Q12809 whole entry, looked up): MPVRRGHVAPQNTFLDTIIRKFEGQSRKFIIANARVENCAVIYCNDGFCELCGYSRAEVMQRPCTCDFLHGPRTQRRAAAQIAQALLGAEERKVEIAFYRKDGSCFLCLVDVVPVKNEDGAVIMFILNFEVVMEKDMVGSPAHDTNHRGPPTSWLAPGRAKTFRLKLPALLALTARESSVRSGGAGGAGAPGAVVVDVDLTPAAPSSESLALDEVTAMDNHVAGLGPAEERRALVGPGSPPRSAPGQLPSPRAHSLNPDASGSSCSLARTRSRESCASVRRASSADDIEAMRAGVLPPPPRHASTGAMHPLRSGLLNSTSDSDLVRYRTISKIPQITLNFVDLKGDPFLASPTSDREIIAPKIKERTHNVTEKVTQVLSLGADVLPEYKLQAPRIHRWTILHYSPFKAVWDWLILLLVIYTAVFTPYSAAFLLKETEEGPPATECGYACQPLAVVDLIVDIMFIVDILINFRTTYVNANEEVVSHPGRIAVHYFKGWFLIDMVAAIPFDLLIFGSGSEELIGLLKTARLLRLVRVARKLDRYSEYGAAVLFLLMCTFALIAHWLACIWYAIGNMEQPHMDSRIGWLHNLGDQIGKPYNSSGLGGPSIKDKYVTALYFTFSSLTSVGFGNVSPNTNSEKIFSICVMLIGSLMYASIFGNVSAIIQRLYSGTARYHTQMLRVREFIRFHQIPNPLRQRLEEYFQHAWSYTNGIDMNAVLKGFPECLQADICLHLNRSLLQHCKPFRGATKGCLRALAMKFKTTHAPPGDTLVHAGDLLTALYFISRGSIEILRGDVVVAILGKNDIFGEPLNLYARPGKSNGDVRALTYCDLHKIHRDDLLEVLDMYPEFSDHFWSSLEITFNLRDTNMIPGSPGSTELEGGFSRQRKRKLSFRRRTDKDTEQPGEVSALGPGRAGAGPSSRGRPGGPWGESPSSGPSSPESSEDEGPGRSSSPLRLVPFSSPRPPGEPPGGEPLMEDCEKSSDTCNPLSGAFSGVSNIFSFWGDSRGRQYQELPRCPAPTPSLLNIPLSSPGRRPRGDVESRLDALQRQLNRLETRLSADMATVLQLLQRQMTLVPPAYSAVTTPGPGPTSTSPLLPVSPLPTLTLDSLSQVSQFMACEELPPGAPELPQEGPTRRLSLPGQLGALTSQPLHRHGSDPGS
Consider `COc1ccccc1-n1c(-c2ccccc2Br)nc2ccccc2c1=O`, for which the “hERG current change (%, negative = inhibition) at 10uM” value was -6.37%.

Take `Cc1ccc(NC(NC(=O)OCCn2c([N+](=O)[O-])cnc2C)C(Cl)(Cl)Cl)cc1` (stereo not drawn): the “hERG current change (%, negative = inhibition) at 10uM” value is on record as 6.71%.

Take `C=CC(=O)NCC1OCCc2ccccc21` (stereo not drawn): the “hERG current change (%, negative = inhibition) at 10uM” value is 3.45%.

Regarding `CCn1cc(C2=NOC(C(=O)Nc3cc(C)nn3-c3ccccc3)C2)c(C)n1` (stereo not drawn), the “hERG current change (%, negative = inhibition) at 10uM” value is given as -23.3%.

For `Cc1ccc(OCC(=O)c2cc(C)n(Cc3cccs3)c2C)c([N+](=O)[O-])n1`, the “hERG current change (%, negative = inhibition) at 10uM” value is on record as -4.57%.

For the compound `O=C(Cn1nnc(-c2ccccc2)n1)NNC(=O)c1cccc([N+](=O)[O-])c1`, the “hERG current change (%, negative = inhibition) at 10uM” value was 26.3%.

With `O=C(O)c1ccc(/C=N/N2CCN(c3ccccc3)CC2)cc1`, the “hERG current change (%, negative = inhibition) at 10uM” value is on record as 7.59%.

As for `CCOCCc1nnc(NC(=O)C2CCN(C(=O)c3ccco3)CC2)s1`, the “hERG current change (%, negative = inhibition) at 10uM” value is given as 21.8%.

With `Cc1ccc(-c2csc(NC(=O)C3=NN(c4ccccc4)C(=O)CC3)n2)cc1`, the “hERG current change (%, negative = inhibition) at 10uM” value was 3.35%.

Consider `Cc1ccc(NC2=NC(c3ccc(O)cc3)n3c(nc(C)cc3=O)N2)cc1` (stereo not drawn), for which the “hERG current change (%, negative = inhibition) at 10uM” value was -2.97%.

Consider `Cc1cc(C)c(OCC(O)CN2CCN(C(=O)c3ccccc3)CC2)c(C)c1.O=C(O)C(=O)O` (stereo not drawn), for which the “hERG current change (%, negative = inhibition) at 10uM” value is -46.4%.

For the compound `O=C1NC[C@@H](Cc2ccc(O)cc2)N(CC2CCCCC2)C1=O`, the “hERG current change (%, negative = inhibition) at 10uM” value is recorded as 17.9%.

`O=C(NCCCSc1ccccc1)c1cc(Br)ccc1O`: the “hERG current change (%, negative = inhibition) at 10uM” value is given as 4.35%.

`CCOc1ccccc1-c1noc(CCC(=O)Nc2cccnc2)n1`: the “hERG current change (%, negative = inhibition) at 10uM” value stood at 9.94%.

In the case of `Cc1nn(Cc2ccccc2)c(N)c1C#N`, the “hERG current change (%, negative = inhibition) at 10uM” value turned out to be 1.59%.

For the compound `CCOCCc1nnc(NC(=O)Cc2ccccc2)s1`, the “hERG current change (%, negative = inhibition) at 10uM” value is on record as 3.24%.

In the case of `CC(C)(C)OC(=O)N[C@@H](Cc1ccccc1)C(=O)N1CCC(C(=O)N[C@@H](CCC(N)=O)C(=O)O)CC1`, the “hERG current change (%, negative = inhibition) at 10uM” value stood at 14.5%.

Consider `CN1C(=O)/C(=C/c2ccc(C(=O)NC3CCCC3)cc2)Oc2ccccc21`, for which the “hERG current change (%, negative = inhibition) at 10uM” value was found to be 17.1%.

For `O=C(Nc1ccc(Br)cc1F)c1ccc2c(c1)N(Cc1ccccc1)C(=O)CS2=O` (stereo not drawn), the “hERG current change (%, negative = inhibition) at 10uM” value is on record as -4.04%.

In the case of `Cc1ccc(-c2nc(C)sc2CC(=O)OCC(=O)Nc2ccc(F)c(Cl)c2)cc1`, the “hERG current change (%, negative = inhibition) at 10uM” value is listed as -15.9%.

For the compound `CCN(Cc1ccccc1)C(=O)CN1C(=O)c2ccccc2S1(=O)=O`, the “hERG current change (%, negative = inhibition) at 10uM” value is -3.97%.

As for `CC(=O)NCc1ccc(-c2csc(-c3cccs3)n2)cc1`, the “hERG current change (%, negative = inhibition) at 10uM” value was -40.5%.

Consider `CCCCNc1nc2c(c(=O)n(C)c(=O)n2C)n1CCC`, for which the “hERG current change (%, negative = inhibition) at 10uM” value amounted to 9.61%.

In the case of `O=c1cc(-c2ccccc2)nc(N2CCCCC2)[nH]1`, the “hERG current change (%, negative = inhibition) at 10uM” value was -13.7%.

Turning to `CN(C)S(=O)(=O)c1ccc2nc(NC(=O)c3cccs3)sc2c1`, the “hERG current change (%, negative = inhibition) at 10uM” value is -8.81%.

As to `Cc1nnc(-c2cnn(-c3ccccc3)c2N)n1Cc1ccc(F)cc1`, the “hERG current change (%, negative = inhibition) at 10uM” value is -13.3%.

As to `COc1ccc(Cl)cc1NC(=O)CCNS(=O)(=O)c1cccc2nonc12`, the “hERG current change (%, negative = inhibition) at 10uM” value turned out to be 11%.

Turning to `CN(C)/C=C/C(=O)/C=C/c1ccc(Cl)cc1Cl`, the “hERG current change (%, negative = inhibition) at 10uM” value was -22.2%.

Take `Cc1nn(-c2ccccc2)c(Cl)c1/C=N/Nc1ccc(S(=O)(=O)Nc2ccccc2C(=O)O)cc1[N+](=O)[O-]`: the “hERG current change (%, negative = inhibition) at 10uM” value came out at 11.2%.

On to `CC(C)CCN(C(=S)Nc1cccc(C(F)(F)F)c1)C(C)c1ccccn1` (stereo not drawn), for which the “hERG current change (%, negative = inhibition) at 10uM” value is -1.76%.

For the compound `C#CCOCCOCCOCCNc1nc(N2CCN(C(=O)[C@H](Cc3ccc(O)cc3)n3cc([C@@H](N)C(C)CC)nn3)CC2)nc(N2CCN(C(=O)[C@H](CCCCN)n3cc([C@@H](N)CC(C)C)nn3)CC2)n1.Cl` (stereo partly drawn), the “hERG current change (%, negative = inhibition) at 10uM” value worked out at 6.05%.

Regarding `CCCN(CCC)C(=O)c1ccc2nc(-c3ccc(OC)c(OC)c3)c(-c3ccc(OC)c(OC)c3)nc2c1`, the “hERG current change (%, negative = inhibition) at 10uM” value is listed as -5.84%.

Regarding `CSc1nc(-c2ccc(C)cc2)nc(N)c1C#N`, the “hERG current change (%, negative = inhibition) at 10uM” value is recorded as 7.79%.

For `O=C(CN1CCN(S(=O)(=O)c2cccc(F)c2)CC1)NCC1(N2CCOCC2)CCCCC1`, the “hERG current change (%, negative = inhibition) at 10uM” value is listed as -5.26%.

As to `Cc1ccc(C(C(=O)NCC2CCCO2)N(Cc2ccccc2)C(=O)c2ccc(-c3ccccc3)[nH]2)o1` (stereo not drawn), the “hERG current change (%, negative = inhibition) at 10uM” value was -7.63%.

As for `CC(=NCc1ccc2c(c1)OCO2)C1=C(O)c2ccccc2C1=O`, the “hERG current change (%, negative = inhibition) at 10uM” value was determined as 1.76%.

`CCc1ccc2c(c1)C(C)=CC(C)(C)N2`: the “hERG current change (%, negative = inhibition) at 10uM” value was 17%.

Consider `CCOc1ccc(CCNC(=O)c2ccccc2OCc2c(C)noc2C)cc1OCC`, for which the “hERG current change (%, negative = inhibition) at 10uM” value was -12.4%.

For the compound `c1ccc(-c2nnc3n2CCCC3)cc1`, the “hERG current change (%, negative = inhibition) at 10uM” value is recorded as 6.32%.

Take `Cc1cccc(NC(=O)COc2cccc3c2CCN(C)C3=O)c1`: the “hERG current change (%, negative = inhibition) at 10uM” value is given as 10.6%.

Take `Oc1ccc(/C=N/Nc2cccc(Cl)n2)c(O)c1`: the “hERG current change (%, negative = inhibition) at 10uM” value is -6.6%.

Turning to `Cc1cc(N2C(=O)C(O)=C(C(=O)c3cc4ccccc4o3)C2c2cccs2)no1` (stereo not drawn), the “hERG current change (%, negative = inhibition) at 10uM” value worked out at 23.6%.
